In the antibiotic and cytotoxicity screens of Wong et al. (2023):
This is one part of the list.

Each compound was assayed on HSkMC (human skeletal muscle cells) (assay: cytotoxicity call (relative viability < 0.9)). Details: 10 µM.

Compound	cytotoxicity call
CC(C)C#Cc1cnc2c(c1)C(=O)N([C@H](C)CO)C[C@@H](C)[C@H](CN(C)S(=O)(=O)c1cn(C)cn1)O2	inactive
C[C@@H]1CN([C@H](C)CO)C(=O)c2cccc(NS(=O)(=O)c3ccccc3)c2O[C@@H]1CN(C)Cc1ccncc1	inactive
C[C@H]1CN([C@@H](C)CO)C(=O)Cc2cc(NC(=O)CCN3CCOCC3)ccc2O[C@H]1CN(C)CC1CC1	inactive
C[C@@H]1CN([C@@H](C)CO)C(=O)c2cc(NC(=O)Cc3cn(C)c4ccccc34)ccc2O[C@H]1CN(C)S(C)(=O)=O	inactive
Cc1ccc(O)cc1	inactive
CC(=O)Oc1ccc(-c2cc(=O)c3c(OC(C)=O)cc(OC(C)=O)cc3o2)cc1	inactive
CC(C)c1cc(N2CC[C@@H](N)C2)nc(N)n1	inactive
CNC1(C)C2CCC(C2)C1(C)C.Cl (stereo not given)	inactive
CCN1C(=O)[C@H]2[C@H](O)CS[C@H]2C1=O	inactive
C[C@@H]1CN([C@@H](C)CO)C(=O)c2cc(-c3ccc(C#N)cc3)cnc2O[C@H]1CN(C)C(=O)Nc1ccc(C(F)(F)F)cc1	inactive
COc1ccc(S(=O)(=O)N(C)C[C@H]2Oc3ccc(NS(C)(=O)=O)cc3CC(=O)N([C@H](C)CO)C[C@@H]2C)cc1	inactive
O=C(NCC[C@H]1CC[C@H](NS(=O)(=O)c2cccc(F)c2)[C@@H](CO)O1)C1CC1	inactive
Cn1cnc(S(=O)(=O)N[C@H]2C=C[C@H](CC(=O)Nc3ccccc3)O[C@H]2CO)c1	inactive
C[C@@H]1CCCCO[C@H](CN(C)C(=O)NC2CCCCC2)[C@@H](C)CN([C@@H](C)CO)C(=O)c2cc(NC(=O)Nc3ccc(C(F)(F)F)cc3)ccc2O1	inactive
O=C(C[C@@H]1CC[C@H](NC(=O)CN2CCOCC2)[C@H](CO)O1)NCc1cccc(F)c1	inactive
C[C@@H]1CN([C@H](C)CO)C(=O)c2cccc(NC(=O)c3ccc(-c4nccs4)cc3)c2O[C@H]1CN(C)Cc1ccc2c(c1)OCO2	inactive
CC(C)C#Cc1cnc2c(c1)C(=O)N([C@H](C)CO)C[C@@H](C)[C@@H](CN(C)C(=O)c1ccc3c(c1)OCO3)O2	inactive
Cc1nc(-c2ccc(OCC(C)C)c(C#N)c2)sc1C(=O)O	inactive
O=C(C[C@H]1C[C@@H]2c3cc(NS(=O)(=O)c4ccc(F)cc4)ccc3O[C@@H]2[C@H](CO)O1)NCCN1CCCCC1	inactive
C[C@@H]1CCCCO[C@H](CN(C)CC2CC2)[C@H](C)CN([C@@H](C)CO)C(=O)c2cc(NC(=O)C3CCCCC3)ccc2O1	inactive

Compound	cytotoxicity call
C[C@@H]1CN([C@H](C)CO)C(=O)c2c(c3ccccc3n2C)-c2ccccc2CO[C@@H]1CN(C)C(=O)N[C@H](C)c1ccccc1	inactive
C[C@@H]1CCCCO[C@H](CN(C)Cc2ccccc2)[C@@H](C)CN([C@@H](C)CO)C(=O)c2cc(NC(=O)Nc3ccccc3)ccc2O1	inactive
O=C(Nc1ccc(-c2nc3ccc(NC(=O)c4ccc(Cl)cc4)cc3[nH]2)cc1)c1ccc(Cl)cc1	active
COc1ccc(CNC(=O)C[C@H]2CC[C@@H]3[C@@H](COc4ccc(NC(=O)C(C)C)cc4C(=O)N3C)O2)cc1	inactive
COc1ccc2c3c([nH]c2c1)[C@H](CO)N(Cc1ccccc1)C[C@]13CCN(CC1)C(=O)Nc1cccc(c1)F	inactive
CO[C@@H]1CN(C)C(=O)c2ccc(NC(=O)c3ccc(F)cc3)cc2OC[C@H](C)N(C(=O)CN(C)C)C[C@H]1C	inactive
C[C@H](CO)N1C[C@H](C)[C@@H](CN(C)CC2CCCCC2)Oc2c(NS(=O)(=O)c3cn(C)cn3)cccc2C1=O	inactive
C[C@H](CO)N1C[C@H](C)[C@@H](CN(C)C(=O)Cc2ccccc2)OCCCC[C@H](C)Oc2ccc(NC(=O)NC3CCCCC3)cc2C1=O	inactive
COCC#Cc1cnc2c(c1)C(=O)N([C@@H](C)CO)C[C@@H](C)[C@@H](CN(C)S(=O)(=O)c1ccccc1)O2	inactive
C[C@@H]1CN([C@@H](C)CO)C(=O)c2cc(NS(=O)(=O)c3cccs3)ccc2O[C@@H]1CN(C)CC1CC1	inactive
C[C@H]1CCCCO[C@H](CN(C)C(=O)Nc2ccc(C(F)(F)F)cc2)[C@@H](C)CN([C@@H](C)CO)C(=O)c2cc(NC(=O)NC3CCCCC3)ccc2O1	inactive
C[C@@H]1CN([C@@H](C)CO)C(=O)c2cc(NC(=O)c3ccncc3)ccc2O[C@@H](C)CCCCO[C@@H]1CN(C)C(=O)C1CCCCC1	inactive
Cc1ccc(S(=O)(=O)Nc2ccc3c(c2)C(=O)N([C@@H](C)CO)C[C@H](C)[C@H](CN(C)Cc2ccc(Cl)c(Cl)c2)O3)cc1	inactive
C[C@@H]1CN([C@H](C)CO)C(=O)c2cc(NC(=O)NC3CCCCC3)ccc2O[C@@H]1CN(C)Cc1ccc(C(=O)Nc2ccccc2N)cc1	inactive
C[C@@H]1CN([C@@H](C)CO)C(=O)Cc2cc(NS(=O)(=O)c3ccccc3)ccc2O[C@H]1CN(C)Cc1ccc(C(=O)O)cc1	inactive
C[C@H]1CN([C@@H](C)CO)C(=O)c2cc(NC(=O)c3ccncc3)ccc2O[C@@H]1CN(C)S(=O)(=O)c1cccs1	inactive
O=C(C[C@H]1CC[C@@H]2[C@H](COC[C@H](O)CN2S(=O)(=O)c2ccccc2)O1)NCCN1CCCC1	inactive
Cc1noc(C)c1S(=O)(=O)N(C)C[C@H]1Oc2ccc(NC(=O)CCC(F)(F)F)cc2CC(=O)N([C@H](C)CO)C[C@H]1C	inactive
C[C@H](CO)N1C[C@H](C)[C@@H](CN(C)C(=O)Nc2ccc(C(F)(F)F)cc2)OCCCC[C@H](C)Oc2ccc(NC(=O)C3CCCCC3)cc2C1=O	inactive
COc1ccc(NC(=O)Nc2ccc3c(c2)C(=O)N([C@H](C)CO)C[C@@H](C)[C@H](CN(C)S(=O)(=O)c2ccc(OC)cc2)OCCCC[C@H](C)O3)cc1	inactive
